# Laboratory results from PMC9911399, “Two distinct binding modes provide the RNA-binding protein RbFox with extraordinary sequence specificity”.
# Positions count from the first letter of the chain named. The list shows a part of the results.
# T1: RBFOX1 RRM RbFoxmut (Fox-RRM*) (Homo sapiens, UniProt Q9NWB1 109-208, R118D;E147R;N151S;E152T)
# T1 sequence: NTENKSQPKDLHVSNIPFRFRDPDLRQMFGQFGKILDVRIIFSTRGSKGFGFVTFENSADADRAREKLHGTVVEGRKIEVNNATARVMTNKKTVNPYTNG
# B1: UCCUGUC (DNA:RNA)
# RNA: GGGAGACCGGAAUUCAGAUUGUCCUCCUGUCUUAAAUCCCGUCGUAGCCACCA
# DNA 1: CAATCTGAATTCCGGTCTCCC
# DNA 2: TGGTGGCTACGACGGGATT
# B2: UCAAGGU (DNA:RNA)
# RNA: B1 RNA with C27A, U28A, U30G, C31U
# DNA 1: CAATCTGAATTCCGGTCTCCC
# DNA 2: TGGTGGCTACGACGGGATT
# B3: CACCCGG (DNA:RNA)
# RNA: B1 RNA with U25C, C26A, U28C, G29C, U30G, C31G
# DNA 1: CAATCTGAATTCCGGTCTCCC
# DNA 2: TGGTGGCTACGACGGGATT
# B4: CUCAUUA (DNA:RNA)
# RNA: B1 RNA with U25C, C26U, U28A, G29U, C31A
# DNA 1: CAATCTGAATTCCGGTCTCCC
# DNA 2: TGGTGGCTACGACGGGATT
# B5: GAUUACC (DNA:RNA)
# RNA: B1 RNA with U25G, C26A, C27U, G29A, U30C
# DNA 1: CAATCTGAATTCCGGTCTCCC
# DNA 2: TGGTGGCTACGACGGGATT
# B6: AAGUUAG (DNA:RNA)
# RNA: B1 RNA with U25A, C26A, C27G, G29U, U30A, C31G
# DNA 1: CAATCTGAATTCCGGTCTCCC
# DNA 2: TGGTGGCTACGACGGGATT
# B7: GGUAGGA (DNA:RNA)
# RNA: B1 RNA with U25G, C26G, C27U, U28A, U30G, C31A
# DNA 1: CAATCTGAATTCCGGTCTCCC
# DNA 2: TGGTGGCTACGACGGGATT
# B8: AUCAUCA (DNA:RNA)
# RNA: B1 RNA with U25A, C26U, U28A, G29U, U30C, C31A
# DNA 1: CAATCTGAATTCCGGTCTCCC
# DNA 2: TGGTGGCTACGACGGGATT
# B9: AUAAUAC (DNA:RNA)
# RNA: B1 RNA with U25A, C26U, C27A, U28A, G29U, U30A
# DNA 1: CAATCTGAATTCCGGTCTCCC
# DNA 2: TGGTGGCTACGACGGGATT
# B10: CCACAUA (DNA:RNA)
# RNA: B1 RNA with U25C, C27A, U28C, G29A, C31A
# DNA 1: CAATCTGAATTCCGGTCTCCC
# DNA 2: TGGTGGCTACGACGGGATT
# B11: GGCCGGA (DNA:RNA)
# RNA: B1 RNA with U25G, C26G, U28C, U30G, C31A
# DNA 1: CAATCTGAATTCCGGTCTCCC
# DNA 2: TGGTGGCTACGACGGGATT
# B12: CGCAGUG (DNA:RNA)
# RNA: B1 RNA with U25C, C26G, U28A, C31G
# DNA 1: CAATCTGAATTCCGGTCTCCC
# DNA 2: TGGTGGCTACGACGGGATT
# B13: CCCGCCG (DNA:RNA)
# RNA: B1 RNA with U25C, U28G, G29C, U30C, C31G
# DNA 1: CAATCTGAATTCCGGTCTCCC
# DNA 2: TGGTGGCTACGACGGGATT
# B14: AGUCUAC (DNA:RNA)
# RNA: B1 RNA with U25A, C26G, C27U, U28C, G29U, U30A
# DNA 1: CAATCTGAATTCCGGTCTCCC
# DNA 2: TGGTGGCTACGACGGGATT
# B15: CCUACGC (DNA:RNA)
# RNA: B1 RNA with U25C, C27U, U28A, G29C, U30G
# DNA 1: CAATCTGAATTCCGGTCTCCC
# DNA 2: TGGTGGCTACGACGGGATT
# B16: AGAACCA (DNA:RNA)
# RNA: GGGAGACCGGAAUUCAGAUUGUCCAGAACCAUUAAAUCCCGUCGUAGCCACCA
# DNA 1: CAATCTGAATTCCGGTCTCCC
# DNA 2: TGGTGGCTACGACGGGATT
# B17: AUAUGUA (DNA:RNA)
# RNA: B16 RNA with G26U, A28U, C29G, C30U
# DNA 1: CAATCTGAATTCCGGTCTCCC
# DNA 2: TGGTGGCTACGACGGGATT
# B18: AUUCUAU (DNA:RNA)
# RNA: B16 RNA with G26U, A27U, A28C, C29U, C30A, A31U
# DNA 1: CAATCTGAATTCCGGTCTCCC
# DNA 2: TGGTGGCTACGACGGGATT
# B19: CGGGCAA (DNA:RNA)
# RNA: B16 RNA with A25C, A27G, A28G, C30A
# DNA 1: CAATCTGAATTCCGGTCTCCC
# DNA 2: TGGTGGCTACGACGGGATT
# B20: CUUAUUU (DNA:RNA)
# RNA: B16 RNA with A25C, G26U, A27U, C29U, C30U, A31U
# DNA 1: CAATCTGAATTCCGGTCTCCC
# DNA 2: TGGTGGCTACGACGGGATT
# B21: GUCGACG (DNA:RNA)
# RNA: B16 RNA with A25G, G26U, A27C, A28G, C29A, A31G
# DNA 1: CAATCTGAATTCCGGTCTCCC
# DNA 2: TGGTGGCTACGACGGGATT
# B22: UCCACCA (DNA:RNA)
# RNA: B16 RNA with A25U, G26C, A27C
# DNA 1: CAATCTGAATTCCGGTCTCCC
# DNA 2: TGGTGGCTACGACGGGATT
# B23: UGGAUCU (DNA:RNA)
# RNA: B16 RNA with A25U, A27G, C29U, A31U
# DNA 1: CAATCTGAATTCCGGTCTCCC
# DNA 2: TGGTGGCTACGACGGGATT
# B24: UCGGUGU (DNA:RNA)
# RNA: B1 RNA with C27G, U28G, G29U, U30G, C31U
# DNA 1: CAATCTGAATTCCGGTCTCCC
# DNA 2: TGGTGGCTACGACGGGATT
# B25: GGAUGCC (DNA:RNA)
# RNA: B16 RNA with A25G, A28U, C29G, A31C
# DNA 1: CAATCTGAATTCCGGTCTCCC
# DNA 2: TGGTGGCTACGACGGGATT
# B26: GUAAGAU (DNA:RNA)
# RNA: B16 RNA with A25G, G26U, C29G, C30A, A31U
# DNA 1: CAATCTGAATTCCGGTCTCCC
# DNA 2: TGGTGGCTACGACGGGATT
# B27: GAUGGCA (DNA:RNA)
# RNA: B16 RNA with A25G, G26A, A27U, A28G, C29G
# DNA 1: CAATCTGAATTCCGGTCTCCC
# DNA 2: TGGTGGCTACGACGGGATT
# B28: AUGGCGA (DNA:RNA)
# RNA: B16 RNA with G26U, A27G, A28G, C30G
# DNA 1: CAATCTGAATTCCGGTCTCCC
# DNA 2: TGGTGGCTACGACGGGATT
# B29: UGGCUGG (DNA:RNA)
# RNA: B16 RNA with A25U, A27G, A28C, C29U, C30G, A31G
# DNA 1: CAATCTGAATTCCGGTCTCCC
# DNA 2: TGGTGGCTACGACGGGATT
# B30: UGAGACG (DNA:RNA)
# RNA: B16 RNA with A25U, A28G, C29A, A31G
# DNA 1: CAATCTGAATTCCGGTCTCCC
# DNA 2: TGGTGGCTACGACGGGATT
# B31: UGUACCC (DNA:RNA)
# RNA: B16 RNA with A25U, A27U, A31C
# DNA 1: CAATCTGAATTCCGGTCTCCC
# DNA 2: TGGTGGCTACGACGGGATT
# Molecular target: T1, RBFOX1 RRM RbFoxmut (Fox-RRM*)
# Assay: EMSA; HiTS-Eq, 1 nM pool, 10 min; buffer printed only for the single-RNA assays: 10 mM Tris pH 7.5, 150 mM NaCl, 3.4 mM EDTA, 0.001% NP-40, 30 C
# Settings: tags: His6 N-terminal (pET28a); label: 5' 32P
# Method in brief: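 Relative association constants, normalised to the cognate motif, were derived by comparing read counts of each RNA species with those of the control reaction. The RNA sequenced was the free fraction, separated by 8% native PAGE after a 10 min equilibration in 50 µL of 1 nM 5′-radiolabelled RNA (7 randomized nucleotides) with increasing concentrations of purified wild-type or mutant RbFox RRM.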
row,Binder,binding signal
1,B1,0.164 KA relative to UGCAUGU
2,B2,0.107 KA relative to UGCAUGU
3,B3,0.0792 KA relative to UGCAUGU
4,B4,0.119 KA relative to UGCAUGU
5,B5,0.0474 KA relative to UGCAUGU
6,B6,0.135 KA relative to UGCAUGU
7,B7,0.0596 KA relative to UGCAUGU
8,B8,0.0942 KA relative to UGCAUGU
9,B9,0.0898 KA relative to UGCAUGU
10,B10,0.122 KA relative to UGCAUGU
11,B11,0.0626 KA relative to UGCAUGU
12,B12,0.155 KA relative to UGCAUGU
13,B13,0.0882 KA relative to UGCAUGU
14,B14,0.0848 KA relative to UGCAUGU
15,B15,0.0863 KA relative to UGCAUGU
16,B16,0.0847 KA relative to UGCAUGU

row,Binder,binding signal
1,B17,0.261 KA relative to UGCAUGU
2,B18,0.112 KA relative to UGCAUGU
3,B19,0.0738 KA relative to UGCAUGU
4,B20,0.112 KA relative to UGCAUGU
5,B21,0.0717 KA relative to UGCAUGU
6,B22,0.0927 KA relative to UGCAUGU
7,B23,0.259 KA relative to UGCAUGU
8,B24,0.131 KA relative to UGCAUGU
9,B25,0.168 KA relative to UGCAUGU
10,B26,0.0833 KA relative to UGCAUGU
11,B27,0.123 KA relative to UGCAUGU
12,B28,0.107 KA relative to UGCAUGU
13,B29,0.217 KA relative to UGCAUGU
14,B30,0.118 KA relative to UGCAUGU
15,B31,0.0834 KA relative to UGCAUGU
